The results in this text go back to publication PMC4336329 (PLoS ONE, 2015).

The campaign covered roughly 310,000 compounds. About 2,200 (0.71%) showed an effect of 50% or more. The effect is printed as a negative number. Some of the results follow.

Chain of human ether-à-go-go-related gene (hERG) potassium channel (Q12809 whole entry, looked up): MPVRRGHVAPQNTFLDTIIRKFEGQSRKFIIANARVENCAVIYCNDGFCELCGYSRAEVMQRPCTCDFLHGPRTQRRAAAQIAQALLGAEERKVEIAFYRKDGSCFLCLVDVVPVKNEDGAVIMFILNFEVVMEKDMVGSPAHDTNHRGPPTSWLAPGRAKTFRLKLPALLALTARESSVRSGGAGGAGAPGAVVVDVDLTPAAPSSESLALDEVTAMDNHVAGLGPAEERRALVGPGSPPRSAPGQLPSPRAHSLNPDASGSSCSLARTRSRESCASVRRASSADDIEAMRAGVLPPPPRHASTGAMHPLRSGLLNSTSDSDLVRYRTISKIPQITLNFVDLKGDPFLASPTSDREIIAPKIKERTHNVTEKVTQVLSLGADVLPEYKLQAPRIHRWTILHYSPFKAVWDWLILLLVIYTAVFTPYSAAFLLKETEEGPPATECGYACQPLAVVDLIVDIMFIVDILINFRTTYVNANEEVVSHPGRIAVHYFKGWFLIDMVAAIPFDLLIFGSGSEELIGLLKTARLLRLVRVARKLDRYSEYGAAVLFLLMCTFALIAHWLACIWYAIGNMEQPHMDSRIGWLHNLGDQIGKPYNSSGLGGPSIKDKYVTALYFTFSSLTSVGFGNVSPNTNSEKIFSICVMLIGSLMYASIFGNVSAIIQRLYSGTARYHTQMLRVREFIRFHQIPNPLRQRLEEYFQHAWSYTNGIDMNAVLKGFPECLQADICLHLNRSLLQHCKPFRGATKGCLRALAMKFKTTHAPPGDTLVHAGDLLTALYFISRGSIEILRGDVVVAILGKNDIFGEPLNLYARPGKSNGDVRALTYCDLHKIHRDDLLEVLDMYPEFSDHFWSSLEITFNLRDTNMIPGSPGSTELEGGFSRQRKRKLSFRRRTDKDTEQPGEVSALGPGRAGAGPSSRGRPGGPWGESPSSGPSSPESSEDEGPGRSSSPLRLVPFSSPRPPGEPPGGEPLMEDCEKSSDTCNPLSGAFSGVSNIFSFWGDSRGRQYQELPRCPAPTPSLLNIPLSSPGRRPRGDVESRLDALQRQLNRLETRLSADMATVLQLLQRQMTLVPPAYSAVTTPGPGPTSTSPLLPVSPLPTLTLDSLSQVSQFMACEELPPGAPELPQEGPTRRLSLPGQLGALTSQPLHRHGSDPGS

This experiment addresses human ether-à-go-go-related gene (hERG) potassium channel (human, UniProt Q12809). Description: primary screen, population patch clamp on CHO cells stably expressing hERG.
`CCn1cc(C(=O)Nc2ccc(C)cc2[N+](=O)[O-])c(C)n1`: the “hERG current change (%, negative = inhibition) at 1uM” value worked out at 6.98%.
The figure for `COc1ccc(/C=N/Nc2ccc([N+](=O)[O-])cc2S(=O)(=O)N2CCN(C)CC2)cc1` is 11.7%; for `COc1ccc(CNS(=O)(=O)NCc2ccc(C)cc2)cc1` it is 14.4%; for `O=c1[nH]c(=O)n(-c2ccccc2)c2c1C(C(F)(F)F)(C(F)(F)F)N=C(CCC1CCCCC1)N2` it is 0.372%.
As for `COc1ccc(-c2ccc(SCC(=O)c3cccs3)nn2)cc1`, the “hERG current change (%, negative = inhibition) at 1uM” value is 9.88%.
Consider `CSc1ccc(Cl)c(C(=O)NCc2ccco2)c1`, for which the “hERG current change (%, negative = inhibition) at 1uM” value is listed as 10.3%.
The same measure for `COc1ccc(C(=O)NCCNC(C)=O)cc1S(=O)(=O)NCc1ccc(Cl)cc1`: -1.21%; for `O=C(Cc1ccc(Br)cc1)NCCc1ccc(F)cc1`: 17.5%; for `O=C1c2ccccc2C(=O)N1n1c(=O)[nH]c2ccccc2c1=O`: 9.46%.
`COc1nccnc1NS(=O)(=O)c1ccc(NC(=S)NC(=O)c2ccccc2)cc1`: the “hERG current change (%, negative = inhibition) at 1uM” value turned out to be 19.5%.
Turning to `Cc1c(C(=O)OCC(C)C)[nH]c2c1C(=O)CC(c1cccs1)C2` (centres unmarked), the “hERG current change (%, negative = inhibition) at 1uM” value is listed as 18.7%.
In the case of `Cc1ccc(C(C)C)cc1OCC(=O)N/N=C/c1ccc2c(c1)OCCO2`, the “hERG current change (%, negative = inhibition) at 1uM” value came out at 11.8%.
The same measure for `Cc1ccc(CNC(=O)CCNS(=O)(=O)c2cccs2)cc1`: -5.94%; for `COc1cc(/C=N/NC(=O)C(=O)NCC2CCCO2)ccc1OCC(=O)N1CCOCC1` (centres unmarked): 15.3%; for `O=C(CCCN1C(=O)/C(=C/c2ccccc2Cl)SC1=S)Nc1cccnc1`: 3.46%.
The same measure for `COc1ccc(NC(=O)Nc2ccccc2SC)c(OC)c1`: 18.1%; for `CC(NC(=S)NC1CCCCC1)c1ccc(C(C)(C)C)cc1` (centres unmarked): 11.6%; for `Cc1cc(Oc2ccc(Br)cc2)nc(SCC(=O)c2ccccc2)n1`: 4.98%.
With `COc1ccc(/C(O)=C2/C(=O)C(=O)N(Cc3cccnc3)C2c2ccncc2)cc1F` (centres unmarked), the “hERG current change (%, negative = inhibition) at 1uM” value came to 19.4%.
The same measure for `O=C(NCc1ccccc1)C1=C[C@H](c2ccc(Br)cc2)C[C@H](OCc2ccc(CO)cc2)O1`: 8.76%; for `COc1ccc(NC(=O)CCCNS(=O)(=O)c2cccs2)cc1`: 7.9%; for `O=C(CSc1nc2nccnc2c(=O)n1Cc1cccs1)Nc1ccccc1F`: -5.77%.
The figure for `Cc1cc(-c2ccccc2)n2nc(C)c(C#N)c2n1` is 18.2%.
The same measure for `O=C(Nc1ccc(Cl)c(C(F)(F)F)c1)C(=O)N1CCCCC1`: 13.2%; for `O=C(C(=C1NCCN1)n1cncn1)c1ccccc1`: 11.4%; for `COc1ccc(C(=O)Nc2nc3c(s2)Cc2cc(OC)ccc2-3)cc1`: 1.93%.
As to `O=C(O)C1CCCCC1C(=O)OCCCCOC(=O)C1CCCCC1C(=O)O` (centres unmarked), the “hERG current change (%, negative = inhibition) at 1uM” value stood at 5.74%.
The same measure for `Cc1cc(N2CCCC2=O)ccc1S(=O)(=O)Nc1c(C)nn(C)c1C`: 9.25%; for `Cc1ccc(-c2csc(N3CCN(c4cc5c(cc4Cl)nc(C)n5CCN4CCCCC4)CC3)n2)cc1`: 12%; for `O=C1CCCC1C(=O)Nc1ccc2ccccc2c1` (centres unmarked): 4.3%.
The same measure for `Nn1c(C2CCC2)nc2ccccc2c1=O`: 8.84%; for `O=C(Cn1cnc2ccccc21)Nc1cc(C(F)(F)F)ccc1N1CCOCC1`: 0.981%; for `C=CCOc1ccc(CN(C)CC(=O)Nc2ccc3c(c2)CCC3)cc1.O=C(O)C(=O)O`: 8.97%.
The figure for `CCCCNC(=O)CSc1nc2cc3c(cc2c(=O)n1Cc1ccco1)OCO3` is 10.1%; for `COc1nc(N(C)C)nc(N(C#N)CCOC(C)=O)n1` it is 14.1%.
In the case of `O=C(c1ccc(F)cc1)N(Cc1cccs1)C1CCS(=O)(=O)C1` (centres unmarked), the “hERG current change (%, negative = inhibition) at 1uM” value worked out at 7.97%.
With `COc1ccc(-c2nc3n(n2)C(=O)CC(c2ccco2)S3)cc1` (centres unmarked), the “hERG current change (%, negative = inhibition) at 1uM” value was -4.27%.
In the case of `COc1ccc(C(=O)NCC(=O)N/N=C/c2cccc(OC(=O)c3ccco3)c2)cc1OC`, the “hERG current change (%, negative = inhibition) at 1uM” value worked out at 17.4%.
The figure for `CCOCc1nnc(NC(=O)c2cc(OC)c(OC)cc2[N+](=O)[O-])s1` is 14.9%; for `Cn1nc([N+](=O)[O-])nc1N1CCN(c2ccc(F)cc2)CC1` it is -19.7%; for `O=C(Cn1cc([N+](=O)[O-])cn1)Nc1ccccn1` it is 15.9%.
With `Cc1ccc(NC(=O)[C@@H](NC(=O)N2C[C@H]3C[C@@H](C2)c2cccc(=O)n2C3)C(C)C)cc1`, the “hERG current change (%, negative = inhibition) at 1uM” value was 6.66%.
`C/C(=N\NC(=O)COc1ccccc1-c1ccccc1)c1cccnc1`: the “hERG current change (%, negative = inhibition) at 1uM” value is on record as -10.2%.
The figure for `CCc1cc2c(=O)c(-c3ccon3)c(N)oc2cc1OC` is 8.09%; for `COc1ccc(N2CCN(C(=O)CSc3nnc(CNc4ccccc4)o3)CC2)cc1` it is 4.76%.
For the compound `COc1ccc(OC(=O)C2CC(=O)N(c3ccc(C)cc3)C2)cc1` (centres unmarked), the “hERG current change (%, negative = inhibition) at 1uM” value is given as 13.7%.
As for `Oc1ccccc1N1CCN(CC(O)COCc2ccccc2Cl)CC1` (centres unmarked), the “hERG current change (%, negative = inhibition) at 1uM” value is listed as -12.9%.
For `O=C(Oc1ccc(F)c(F)c1)c1ccc2c(=O)n3c(nc2c1)CCC3`, the “hERG current change (%, negative = inhibition) at 1uM” value was found to be 10.5%.
The same measure for `Cn1c2c(c(=O)n(C)c1=O)C(c1cccc(F)c1)C(C#N)=C(N)O2` (centres unmarked): 14.5%; for `C=CCn1c(Cc2cccs2)nnc1SC/C=C/c1ccccc1`: 1.58%; for `O=C(Nc1ccc(C(=O)O)cc1)/C(=C\c1ccco1)NC(=O)c1ccco1`: 5.91%.
The figure for `CC(=O)N1c2ccccc2C(C)(C)C2CCC(C)CC21` (centres unmarked) is -6.13%; for `CCN(CC)CCNC(=S)Nc1ccc2nc(N3CCOCC3)cc(C)c2c1` it is 8.68%.
The same measure for `COc1ccc(-c2cc3cc(OC)c(OC)cc3c(C)n2)cc1C`: 7.56%; for `Cc1ccc(C(=O)NCc2ccccn2)cc1NC1=NC2CS(=O)(=O)CC2S1` (centres unmarked): 16.2%.
Turning to `O=C(c1cc2cc(Cl)ccc2oc1=O)N1CCN(c2ccccn2)CC1`, the “hERG current change (%, negative = inhibition) at 1uM” value is recorded as 7.98%.
